Among all 45,000 compounds or so, about 200 (0.44%) were called active. Not shown: some 7% with an inconclusive outcome. Calls follow the shape of the dose curve; as a rule, active = well fitted activation curve with a large enough effect; inconclusive = small, poorly fitted or top-dose-only effect; inactive = no such curve, though single readings can be large or run the other way. The list shows a part of the results.
Experiment: qHTS of TDP-43 Inhibitors: NCGC Sytravon Library Screen; also: 0% is about no effect; nearly all actives have a fitted effect of over 55% in size
Conditions: yeast TDP-43 toxicity rescue, BacTiter-Glo growth, 24 h; series mostly up to 46.1 µM; growth rescue (activation): at the top concentration
Procedure, shortened: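 TDP-43-expressing yeast, pregrown in raffinose, seeded at OD600 0.02 in galactose medium with compound for 24 hr at 30 deg C. Growth read by BacTiter-Glo luminescence, so rescue of toxicity appears as activation.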

Row | Compound | growth rescue (activation)
1 | O=[N+]([O-])/C(C(Cl)=C(Cl)Cl)=C(/NC1CC1)Sc1ccccc1 | inactive: 11%
2 | O=C(Nc1ccccc1)NC1(C(=O)N2CCC(O)CC2)CCCCC1 | inactive: -1.62%
3 | Cc1ccc2c(C)nc(Nc3nc(CSc4nc5ccccc5s4)cc(=O)[nH]3)nc2c1 | inactive: -0.96%
4 | Cc1ccc(C)c(NS(=O)(=O)c2ccc3c4c(cccc24)C(=O)N3)c1 | inactive: -2.89%
5 | Cc1cccc(C)c1OCc1cc(C(=O)N2CCN(c3ccccc3)CC2C)no1 (configuration not stated) | inactive: -1.42%
6 | O=C(Nc1cccnc1Cl)c1cc(-c2ccccc2O)on1 | inactive: 0.969%
7 | COc1ccc(C(=O)NCCCNC(=O)c2cccnc2)cc1OC | inactive: -2.89%
8 | CCS(=O)(=O)c1ccc(O)c(NC(=O)NC2CCCCC2)c1 | inactive: 22.7%
9 | O=C(N/N=C/c1ccc([N+](=O)[O-])o1)c1ccc(NS(=O)(=O)c2cccs2)cc1 | inactive: -11.5%
10 | S=C(Nc1ccc(Cl)cc1Cl)N1CCOCC1 | inactive: 12.3%
11 | CCOC(=O)C1(CCCc2ccccc2)CCN(C(=O)C(C)n2cncn2)CC1 (configuration not stated) | inactive: 4.71%
12 | CCO/C(C)=N/n1c2nc3ccccc3nc2c2c(=O)n(C3CCCC3)c(C)nc21 | inactive: 23.5%
13 | CCOC(=O)c1ccccc1NC(=O)CSc1nc(N)cc(=O)[nH]1 | inactive: 29.8%
14 | Cc1cc(C)cc(NC(=S)N(Cc2ccc(Br)cc2)Cc2ccc(C(=O)O)cc2)c1 | inactive: 29.8%
15 | COC(=O)c1ccc(OCC(O)Cn2cnc3cc(C)c(C)cc32)cc1 (configuration not stated) | inactive: 4.41%
16 | O=C(NNC(=O)C1CCN(c2ncccn2)CC1)c1ccc(Cl)cc1 | inactive: -5.31%
17 | COC(=O)[C@@H](NC(=O)c1ccc2c(c1)S(=O)(=O)c1ccccc1C2=O)C(C)C | inactive: 5.38%
18 | C=CCNc1nc(NCc2ccc(NC(C)=O)cc2)c2sc(-c3ccccc3)cc2n1 | inactive: 2.9%
19 | CC1CCC2(CC1)NC(=O)N(CC(=O)NCc1ccc(Cl)cc1)C2=O (configuration not stated) | inactive: 6.87%
20 | Oc1ccc(/C=N/Nc2cc(N3CCCC3)nc(N3CCCC3)n2)cc1O | inactive: 6.12%
21 | OCCC1CN(Cc2ccon2)CCN1CCc1ccccc1 (configuration not stated) | inactive: 0.172%
22 | CC(NC(=O)COC(=O)c1ccc2c(c1)S(=O)(=O)N=C1CCCCCN12)C12CC3CC(CC(C3)C1)C2 (configuration not stated) | inactive: -17.5%

Row | Compound | growth rescue (activation)
23 | O=S(=O)(c1ccc(F)cc1)N1CCN(C(=S)NCc2ccccc2)CC1 | inactive: 9.57%
24 | CCOC(=O)NC(=O)CN1C(=O)NC2(CCc3ccccc32)C1=O (configuration not stated) | inactive: 1.82%
25 | CC(C)CN=Cc1c(O)c([N+](=O)[O-])cc2oc3c(c12)CCCC3 | inactive: -92.9%
26 | Cc1ccc(C(=O)OCCN2CCN(c3ncc(C(F)(F)F)cc3Cl)CC2)cc1 | inactive: -2.46%
27 | FC(F)(F)c1ccccc1/C=N/n1c(COc2ccccc2)n[nH]c1=S | inactive: -0.868%
28 | CCC(=O)Oc1ccc(C(=O)Nc2c[nH]c(=O)[nH]c2=O)cc1 | inactive: 8.84%
29 | Cc1cccc(OCc2ccc(-c3nc(C#N)c(NCCN(C)C)o3)o2)c1 | inactive: 18%
30 | O=S(=O)(NC1=NCCC1)c1cccc(NC(=S)Nc2ccc(OC(F)F)cc2)c1 | inactive: 12.2%
31 | O=C(NCCNCc1ccccc1)c1ccco1 | inactive: -37.1%
32 | O=C(CSc1nc(CCC2CCCC2)nc2ccccc12)NCc1ccc2c(c1)OCO2 | inactive: 16.9%
33 | CN1CCN(C(=O)/C(=C/c2ccco2)NC(=O)c2ccccc2)CC1 | inactive: 14.1%
34 | CCOC(=O)NC(=O)CSc1cc(C)c2cc(C)cc(C)c2n1 | inactive: 18.3%
35 | C[N+](C)(CC#N)C/C=C\c1ccccc1 | inactive: 4.44%
36 | CC1(C(=O)NCCC#N)CCN1C(=O)C1(c2ccccc2)CCCC1 (configuration not stated) | inactive: -0.001%
37 | COc1ccc(/C(C)=N/NC2=NCCN2)cc1Cl | inactive: 1.51%
38 | CCOc1ccc(CCN2C(=O)c3cccnc3C2=O)cc1OCC | inactive: 29.9%
39 | Cc1ccc(CNC(=O)CSc2ccsc2[N+](=O)[O-])cc1 | inactive: 9.09%
40 | O=C1C2CCCCC2C(=O)N1Cc1ccccc1 (configuration not stated) | inactive: 18.7%
41 | CN(C)S(=O)(=O)c1cccc(NC(=S)NC(=O)C2CCCCC2)c1 | inactive: -6.09%
42 | CCc1ccc(N(CC)C(=O)c2ccc3c(=O)n4c(nc3c2)CCCCC4)cc1 | inactive: 7.37%
43 | Cc1ccc(NC(=O)CSc2ncn[nH]2)cc1S(=O)(=O)N1CCOCC1 | inactive: -5.45%
44 | Cc1cc(C)n(-c2ccccc2[N+](=O)[O-])n1 | inactive: -9.96%

Row | Compound | growth rescue (activation)
45 | C/C(Cl)=C\Cn1c(NCCCn2ccnc2)nc2c1c(=O)n(C)c(=O)n2C | inactive: 9.35%
46 | COc1ccccc1-c1nc(C#N)c(N2CCN(C(c3ccccc3)c3ccccc3)CC2)o1 | inactive: -7.48%
47 | Cc1ncoc1C(=O)N1CCCC(CCC(=O)NCc2ccc(F)c(F)c2)C1 (configuration not stated) | inactive: 10.8%
48 | CCOc1ccccc1NC(=O)CCCn1cc([N+](=O)[O-])cn1 | inactive: 23.8%
49 | COc1ccccc1/C=C/C(=O)NCC(=O)N/N=C/c1ccc(C)o1 | inactive: -4.71%
50 | COC(=O)c1ccc(C(=O)OC)c(NC(=O)/C=C/C(=O)O)c1 | inactive: 18.7%
51 | CC(C)(C)/C(O)=C/c1nc2cc(Cl)ccc2oc1=O | inactive: 5.03%
52 | COc1ccc(N2CCN(C(=O)Cn3nnc(-c4ccccc4N)n3)CC2)cc1 | inactive: 4.5%
53 | O=C(CC1CCCC1)Nc1ccc(Cl)c(S(=O)(=O)N2CCOCC2)c1 | inactive: 1.83%
54 | O=C(CCSc1ccc(Br)cc1)Nc1cccnc1 | inactive: 3.45%
55 | O=C(Nc1ccccc1)/C(=C/c1ccc(O)cc1)NC(=O)c1ccco1 | inactive: 7.43%
56 | CN(Cc1ccccc1)C(=O)c1ccc2nc([C@H]3C[C@H](O)[C@@H](CO)O3)[nH]c2c1 | inactive: -0.844%
57 | FC(F)(F)C1CCCN(c2nsc3ccccc23)C1 (configuration not stated) | inactive: -92.9%
58 | CCOc1ccccc1NC(=O)COc1ccc2ccc(=O)oc2c1 | inactive: 5.09%
59 | CC(C)CCNC(=O)CO/N=C/c1ccccc1OC(F)F | inactive: 5.28%
60 | Fc1cccc(Cl)c1COc1ccc(-c2nnco2)cc1 | inactive: 9.28%
61 | COC(=O)C1=C(C)NC2=C(C(=O)CCC2)C1c1coc2ccccc2c1=O (configuration not stated) | inactive: -18.9%
62 | O=C(CN1C(=O)NC(Cc2c[nH]c3ccccc23)C1=O)Nc1cccc(S(=O)(=O)N2CCCCCC2)c1 (configuration not stated) | inactive: -8.56%
63 | O=C(Nc1ccc(S(=O)(=O)N2CCCCC2)cc1)C1CCN(C(=O)c2ccco2)CC1 | inactive: 2.21%
64 | C=CCNC(=O)c1c(Cl)cnn1-c1ccc(C)cc1 | inactive: 10.3%
65 | CC(=O)NCCNc1nc2cc(-c3ccsc3)sc2c(=O)n1C | inactive: -4.79%
66 | COc1ccc(NCC(=O)Nc2ccc(Br)cc2F)c(OC)c1 | inactive: 6.01%

Row | Compound | growth rescue (activation)
67 | NC(=O)c1nn(Cc2ccccc2)c(=O)c2ccccc12 | inactive: 0.0092%
68 | CCC(C)c1ccccc1NC(=O)COC(=O)CCc1cc(OC)c(OC)c(OC)c1 (configuration not stated) | inactive: 8.39%
69 | Fc1ccccc1N1CCN(c2ncnc3[nH]ncc23)CC1 | inactive: 21%
70 | O=C(Nc1nnc(SCc2ccc(F)cc2)s1)C1Cc2ccccc2CN1C(=O)c1ccco1 (configuration not stated) | inactive: -6.6%
71 | O=C(NCCCn1ccnc1)c1ccc(Cl)cc1 | inactive: 1.57%
72 | O=C(NCCc1c[nH]c2ccccc12)N[C@@H](Cc1ccccc1)C(=O)O | inactive: 3.14%
73 | Cc1cccc(CN2CCN(Cc3cccc4nonc34)CC2CCO)n1 (configuration not stated) | inactive: -0.189%
74 | Cc1c(-c2ccccc2)n[nH]c1C(=O)N=Nc1c(O)[nH]c2ccccc12 | inactive: 5.33%
75 | O=C(Nc1ccc(Cl)cn1)c1ccc(Br)c(S(=O)(=O)N2CCCCC2)c1 | inactive: 12.4%
76 | COc1ccc(NC(=O)C2C3C=CC4(O3)C2C(=O)N(CCN2CCCCC2)C4C(=O)NC2CCCC(C)C2C)cc1 (configuration not stated) | inactive: -16%
77 | O=C(COc1ccc(Cl)cc1Br)N1CCN(c2ccccc2)CC1 | inactive: 23.6%
78 | N#CC(C(=O)NCc1ccccc1)c1nc2ccccc2nc1N1CCCC1 (configuration not stated) | inactive: -1.99%
79 | O=S(=O)(Nc1cc(Sc2cccc3cccnc23)c(O)c2ccccc12)c1ccc(F)cc1 | inactive: 7.11%
80 | Cc1ccc(S(=O)(=O)N2CCN(C(=O)NCc3ccc(F)cc3)CC2)c(C)c1 | inactive: -4.61%
81 | COc1ccc(OC)c(S(=O)(=O)Nc2c(C)cccc2C)c1 | inactive: 9.48%
82 | O=C(CC1C(=O)NCCN1CC(c1ccccc1)c1ccccc1)NC1CC1 (configuration not stated) | inactive: -17.8%
83 | Cc1ccc(NC2CCCN(C(=O)CN3C(=O)CSC3=O)C2)cc1C (configuration not stated) | inactive: 14.7%
84 | O=C(NCc1ccccn1)C1CCCN(S(=O)(=O)c2cc(Cl)ccc2Cl)C1 (configuration not stated) | inactive: -10.5%
85 | CCN(CC)CCNC(=S)Nc1ccc(Cl)cc1 | inactive: 21.1%
86 | CCCSc1ncc(Cl)c(C(=O)N(Cc2ccc(Cl)cc2)Cc2ccco2)n1 | inactive: 7.58%
87 | O=C(COC(=O)Cc1cccs1)Nc1cc(S(=O)(=O)N2CCOCC2)ccc1Cl | inactive: 2.65%
88 | CCCOC(=O)c1ccc(Oc2cn[nH]c2-c2ccc(OC)cc2O)cc1 | inactive: -92.6%

Row | Compound | growth rescue (activation)
89 | CC(=O)Nc1ccc(NC(=O)COC(=O)c2c(C)nn(-c3ccccc3)c2C)cc1 | inactive: 12.9%
90 | O=C1c2cccc3cc(Br)cc(c23)C(=O)N1Nc1ccc(Br)cc1 | inactive: 9%
91 | Cc1ccc(/C=C(\NC(=O)c2ccccc2)C(=O)N2CCCC2C(=O)O)cc1 (configuration not stated) | inactive: -4.91%
92 | Cc1ccccc1C(=O)NC(=S)Nc1ccc(Cc2ccncc2)cc1 | inactive: 16.6%
93 | O=C(NC1=NCCS1)c1ccc(Cl)c(Cl)c1 | inactive: 29.6%
94 | C/C(CCc1ccccc1)=N\NC(=S)NCCc1ccccc1 | inactive: 0.135%
95 | Cc1ccc(S(=O)(=O)NC(C)C(=O)N2CCOCCOCCOCC2)cc1 (configuration not stated) | inactive: 6.38%
96 | COc1ccc(-c2csc(NC(=O)C3=NN(c4ccccc4)C(=O)CC3)n2)cc1 | inactive: 3.23%
97 | N#CCC(=O)Nc1ccc(C(=O)OCc2ccccc2Oc2ccccc2)cc1 | inactive: 33.9%
98 | Cc1nn(Cc2ccccc2)c(C)c1NC(=O)CCC(=O)O | inactive: -20.6%
99 | O=C1COc2ccc(S(=O)(=O)N3CCCC3)cc2N1 | inactive: 2.91%
100 | COc1ccc(CC(=O)NNc2ncnc3c2cnn3-c2ccccc2)cc1 | inactive: 0.861%
101 | COc1ccccc1N(CC(=O)NCCSCc1ccco1)S(=O)(=O)c1ccccc1 | inactive: -5.4%
102 | CSc1ccc(C(=O)NC2CCSc3ccccc32)cc1 (configuration not stated) | inactive: -29.2%
103 | Cc1ccc(-c2nnc3c4ccccc4c(C)nn23)cc1NC(=O)c1ccccc1 | inactive: -0.64%
104 | CC(=O)c1ccc(NC(=O)COC(=O)C2CCN(S(=O)(=O)c3cccs3)CC2)cc1 | inactive: -5.86%
105 | CCCC(=O)N1CCC1(C)C(=O)Nc1ccc(OC)c(OC)c1 (configuration not stated) | inactive: 13.8%
106 | CN1C(=O)/C(=C\C=C2/CCCN2C)N(C)C1=S | inactive: -2.07%
107 | CCOC(=O)c1cc(C(=O)OCC)c(=O)[nH]c1C | inactive: 8.59%
